Test results reported in PubChem BioAssay AID1159614 (National Center for Advancing Translational Sciences (NCATS), 2016).
Hit rate of the full screen: of about 45,000 compounds, about 65 (0.1%) were called active. Calls follow the shape of the dose curve; as a rule, active = well fitted activation curve with a large enough effect; inconclusive = small, poorly fitted or top-dose-only effect; inactive = no such curve, though single readings can be large or run the other way. The list shows a part of the results.

Each molecule was assayed against Galactocerebrosidase (Homo sapiens) (UniProt P54803) (assay: A Novel Cell-Based Assay to Identify Small Molecules for B -Galactocerebrosidase). Settings: 145M-Twi-hGALC-G270D cells (Twitcher mouse brain line with human GALC G270D), HMU-beta-Gal fluorescence, 48 h; series mostly up to 57.5 µM; activation: at the top concentration.
Sequence of UniProt P54803 (P54803 whole entry, looked up): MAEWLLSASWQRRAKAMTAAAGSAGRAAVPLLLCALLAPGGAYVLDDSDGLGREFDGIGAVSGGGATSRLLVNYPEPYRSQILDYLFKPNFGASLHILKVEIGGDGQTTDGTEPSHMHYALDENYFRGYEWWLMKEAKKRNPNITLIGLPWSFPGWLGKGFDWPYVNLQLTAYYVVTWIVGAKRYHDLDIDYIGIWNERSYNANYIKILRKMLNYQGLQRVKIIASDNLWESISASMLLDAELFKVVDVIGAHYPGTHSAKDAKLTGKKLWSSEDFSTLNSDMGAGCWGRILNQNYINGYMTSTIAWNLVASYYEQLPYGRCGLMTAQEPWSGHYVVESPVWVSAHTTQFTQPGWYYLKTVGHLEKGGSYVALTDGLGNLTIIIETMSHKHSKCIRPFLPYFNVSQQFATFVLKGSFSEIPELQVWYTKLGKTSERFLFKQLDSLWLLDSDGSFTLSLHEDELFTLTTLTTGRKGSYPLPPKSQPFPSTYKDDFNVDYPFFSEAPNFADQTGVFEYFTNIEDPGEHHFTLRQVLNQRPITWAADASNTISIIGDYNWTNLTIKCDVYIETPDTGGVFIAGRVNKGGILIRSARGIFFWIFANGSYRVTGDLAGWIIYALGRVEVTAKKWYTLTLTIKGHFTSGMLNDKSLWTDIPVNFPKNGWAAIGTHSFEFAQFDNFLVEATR
In short: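 Live 145M-Twi cells (Twitcher mouse brain-derived, GALC-null) stably expressing human GALC-G270D, with a wild-type GALC line, were compound-treated. Residual GALC activity was then read as fluorescence from 0.1 mM final HMU-β-gal at pH 5.2; higher signal means activation.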
Also: 0% is about no effect; nearly all actives have a fitted effect of over 65% in size.

activation, inactive:
COC(=O)c1cccc(CN2C(=O)SC(Nc3ccc(Br)cc3)C2=O)c1 (stereo unspecified) -4.27%, CCOC(=O)CN1C(C(=O)c2ccccc2)=C(OC(=O)c2ccccc2)c2ccccc2S1(=O)=O -15.1%, Cc1cc(C)cc(NC(=O)Nc2cccs2)c1 -5.37%, Cc1ccc(NC(=O)C2CCCN(S(=O)(=O)c3ccc(F)cc3)C2)cc1 (stereo unspecified) -24.4%, COC(=O)C1CCN(C(c2ccccc2Cl)c2sc3nc(-c4ccco4)nn3c2O)CC1 (stereo unspecified) -5.51%, CCCCOc1ccc(C(=O)Nc2onc3c2CCCC3)cc1 -17.5%, Cc1ccc(C)c(NC(=O)Cn2cnc3nc4c(cc3c2=O)CCCC4)c1 -7.29%, COc1ccccc1N1CCN(C(=O)C2CCCN(S(=O)(=O)c3ccc4c(c3)oc(=O)n4C)C2)CC1 (stereo unspecified) -10.9%, CCOC(=O)c1cccc(NC(=O)c2ccc3snnc3c2)c1 -37.8%, COc1ccccc1C(=O)Nc1nc(-c2ccc(Br)cc2)ns1 -10.7%, Cc1nc2ccn(Cc3cccnc3)c(=O)c2cc1C(=O)N1CCN(c2ccccc2)CC1 -19.6%, COCCNC(=O)CSc1nnc(NC(=O)Nc2ccc(C)cc2)s1 -4%, CCc1ccc(-n2c(N3CCN(c4cccc(C)c4C)CC3)nc3ccccc3c2=O)cc1 -5.96%, COC(=O)c1sccc1S(=O)(=O)N(CC(=O)NCc1ccccc1)c1ccc(C)cc1 -8.59%, CC1CC(=O)NN=C1c1ccc(NCC(C)(C)NCC(O)COc2cc(Cl)ccc2C#N)cc1 (stereo unspecified) -10.6%, Cc1ccc(Nc2nc(N)nc(N)c2S(=O)(=O)c2ccccc2)cc1 -6.2%, O=c1[nH]c2ccc(NCc3ccccc3F)cc2[nH]1 -10.8%, CCOc1ccc(CCNC(=O)c2cc3c(=O)n(C)c4ccccc4c3n2C)cc1 -3.34%, O=C(CCc1ccccc1)NCc1ccc2c(c1)CCN2C(=O)c1ccc(Cl)cc1 -4.65%, CCn1c(CNC(=O)C23CC4CC(CC(C4)C2)C3)nnc1SCC(=O)Nc1ccc(F)cc1 0.574%, CCOC(=O)c1cc(NC(=O)c2ccc(OC)cc2)c(=O)n2c1oc1ccc(Cl)cc12 -12.2%, CC1Cc2ccccc2N1C(=O)CSc1nnc(-c2cccc(Cl)c2)o1 (stereo unspecified) 1.3%, O=C(NCCS(=O)(=O)N1CCN(c2cccc(Cl)c2)CC1)c1cc(=O)c2ccccc2o1 -11%, CCc1cccc(NC(=O)CC2Oc3ccc(C)cc3NC2=O)c1 (stereo unspecified) 11.3%, Cc1ccc(NC(=O)CC2Sc3ccccc3NC2=O)c(Br)c1 (stereo unspecified) -2.03%, COc1ccc(-n2c(=O)c3c(c4cc(OC)ccc4n3C)n(C)c2=O)cc1 14.1%, CCOc1ccc(NC(=O)Cn2cc(C(=O)c3ccc(CC)cc3)c(=O)c3ccc(C)nc32)cc1 3.83%, CCOC(=O)c1cccc(NC(=O)c2cnc(N3CCCCC3)c3ccccc23)c1 -4.35%, CC1=C(c2ccc(C)c(C)c2)S(=O)(=O)N=C1N1CCC(C(=O)NCc2ccc(Cl)cc2)CC1 -7.81%, O=C(NCCC1=CCCCC1)c1ccc2c(c1)N(Cc1ccc(Cl)cc1)C(=O)c1ccccc1S2=O (stereo unspecified) -4.06%, CCN(CC)S(=O)(=O)c1ccc2c(c1)N(CC(=O)Nc1c(C)cc(C)cc1C)C(=O)C1CCCN21 (stereo unspecified) -20.2%, Cc1cc(C)c(/C=C/c2onc(C)c2S(=O)(=O)N2CCC(C(=O)Nc3ccc(Cl)c(C(F)(F)F)c3)CC2)c(C)c1 -37.4%, O=C(COc1ccccc1F)Nc1ccc(Cl)c(-c2nc3ccccc3[nH]2)c1 -8.86%, COc1ccc(NC(=O)CSc2nccn2Cc2ccco2)cc1OC -13.6%, Cc1ccc(-n2c(=O)c3cccnc3n2CC(=O)NCc2ccc(F)cc2)cc1C -3.53%, Cc1ccc(CNC(=O)CN2CCCN(Cc3ccc(F)cc3)S2(=O)=O)cc1 -12.5%, Clc1ccc(-c2nc3ccccn3c2Nc2ccc3c(c2)OCCO3)s1 10.9%, Cc1ccc(N(CC(=O)N2CCN(c3cc(Cl)ccc3C)CC2)S(=O)(=O)c2c(C)noc2C)cc1 -9.41%, Cc1cccc(Cn2c(=O)n(-c3ccc(Cl)c(Cl)c3)c(=O)c3c(C)c(C)sc32)c1 -9.49%, CCc1ccc(N2CCn3c2nc2c3c(=O)n(CCc3ccccc3)c(=O)n2C)cc1 3.91%, CCOC(=O)c1cnc2ccccc2c1Nc1ccc(N2CCOCC2)cc1 -8.68%, COc1ccccc1NC(=O)c1nc(SCc2ccc(F)cc2)ncc1Cl 5.06%, CCOCCc1nnc(NC(=O)C(=O)c2cc(C)n(-c3cccc(Cl)c3)c2C)s1 -10.9%, Cc1ccc2nc(NC(=O)CSc3nccn3Cc3ccccc3)sc2c1 -29.7%, Cc1ccc(C)c(N2CCN(C(c3ccc(F)cc3)c3nnc(-c4ccccc4)o3)CC2)c1 (stereo unspecified) -24.3%, Cc1ccccc1CSc1cn(CC(=O)N2CCCC2)c2ccccc12 -5.75%, CCN(Cc1ccccc1)C(=O)Cn1c(=O)oc2cc(S(=O)(=O)N3CCCCCC3)ccc21 -19.2%, Cc1noc2ncnc(NCc3ccccc3Cl)c12 -36.2%, CCOc1ccc(NC(=O)C(=O)NCCc2csc(-c3ccc(C)cc3)n2)cc1 -1.35%, COc1ccc(NC(=O)c2sc3nc(C)c(C(=O)Nc4ccc(C)cc4C)c(-c4cccs4)c3c2N)cc1 -7.26%, COc1ccc(OC)c(NC(=O)c2sc3nc4c(cc3c2N)CCCCCC4)c1 -16.6%, CCC(=O)N1CCc2cc(S(=O)(=O)NCCC(=O)Nc3ccc(OC)c(OC)c3)ccc21 -11%, CCOc1ccc(-c2cc(C(=O)N3CCN(c4ccc(C)cc4)C(C)C3)c3ccccc3n2)cc1 (stereo unspecified) -9.39%, Cc1cccc(N2CCN(c3ncnc4c3c(-c3ccccc3)cn4-c3ccccc3)CC2C)c1 (stereo unspecified) 3.99%, COc1cc(-c2nnn(CC(=O)NCc3ccccc3)n2)cc(OC)c1OC -13%, COc1ccc(NC(=O)CSc2nnc3c(C)cc4ccccc4n23)cc1 -11.4%, Cc1cnc2c(c1SCC(=O)NCc1ccc(F)cc1)c(=O)n(C)c(=O)n2C -4.36%, CCCCNc1nc2c(c(=O)n(Cc3ccc(Cl)c(Cl)c3)c(=O)n2C)n1C -14.3%, CC(C)(C)c1ccc(C(=O)NC(Cc2c[nH]c3ccccc23)C(=O)OCC(=O)c2ccc(Cl)cc2)cc1 (stereo unspecified) -17.4%, Cc1ccc(CNC(=O)CSc2nc3n[nH]c(C)c3c(=N)n2-c2cccc(C)c2)cc1 -24.1%, COc1ccc(-c2noc(-c3ccc(N4CCC(C)CC4)c([N+](=O)[O-])c3)n2)cc1OC 2.88%, COc1ccc(N(CC(=O)N2CCN(c3ccc(F)cc3)CC2)S(=O)(=O)c2c(C)n[nH]c2C)cc1 -6.88%, CCOc1ccc(NC(=O)Cn2cc(S(=O)(=O)N3CCN(c4ccccc4F)CC3)c3ccccc3c2=O)cc1 -11.9%, O=C(NCCc1csc2nc(-c3cccc(F)c3)nn12)c1ccc(Br)o1 -6.62%, COc1ccc(NC(=O)c2oc3ccc(S(=O)(=O)N(C)C4CCCCC4)cc3c2C)cc1 -11.2%, CCOC(=O)c1scc(-c2ccccc2)c1S(=O)(=O)N1CCN(c2ccccc2OC)CC1 -11.5%, Cc1ccc(CNC(=O)c2cccc(-n3cnc4cccnc43)c2)cc1 -2.7%, OC(C#CCN1CCCC1)(c1ccccc1)c1ccccc1 -16%, CCc1ccc(NC(=O)CCNS(=O)(=O)c2ccc3c(c2)CCCC(=O)N3)cc1 1.56%, COc1cccc(C(=O)Nc2c3c(nn2-c2ccc(Cl)cc2)CS(=O)(=O)C3)c1 -21.9%, CCCN(C(=O)c1cc2c(s1)-c1c(C)cccc1OC2)c1ccc(OCC)cc1 -2.99%, CC(C)c1ccc(Nc2nc3c(S(=O)(=O)c4ccc(Br)cc4)nnn3c3ccsc23)cc1 -4.2%, COc1ccc(-c2nn(-c3cccc([N+](=O)[O-])c3)c3c2cnc2cc4c(cc23)OCO4)cc1 -10.6%, Cc1cc2nc(-c3cccc(NC(=O)CSc4ccc(Cl)cc4)c3)oc2cc1C -12.6%, COc1cccc(NS(=O)(=O)c2ccc3c(c2)CCCN3C(=O)C2CCC2)c1 5.46%, CCOC(=O)c1cc(-c2ccc(C)cc2)n(CC(=O)NC2CCCCCC2)c1C 1.46%, CCSc1nnnn1-c1cccc(C(=O)O)c1 -8.98%, C=CCC(CC=C)(CNC(=O)C(=O)Nc1ccc(C(=O)OCC)cc1)c1ccccc1 5.75%, COC(=O)c1ccccc1NC(=O)c1cc2c(-c3ccc(OC)c(OC)c3)nn(C)c2s1 -14.1%, O=C(/C=C/c1cn(CC(O)CN2CCCCCC2)c2ccccc12)c1ccc(Br)cc1 (stereo unspecified) 21.1%, Cc1ccc(-c2nc3ccccn3c2Nc2ccc3c(c2)OCO3)o1 -5.82%, Cc1ccc(NC(=O)C(Cc2ccccc2)n2cccc2)cc1C (stereo unspecified) -3.04%, CCC(=O)Nc1sc2c(c1C(=O)Nc1cccc(C)c1)CCCC2 -4.27%, Cc1cccc(C(=O)Nc2ccc(OCc3cc(=O)n4c5c(sc4n3)CCCC5)cc2)c1 -3.97%, Cc1ccc(NC(=O)Cn2cc(S(=O)(=O)c3ccccc3)c(=O)c3cc4c(cc32)OCO4)cc1 -19.2%, COc1ccccc1Nc1nn2c(=O)c3ccc(C(=O)NC(C)c4ccccc4)cc3nc2s1 (stereo unspecified) -12.8%, Cc1cccc(-c2c3c(=O)n(C)c(=O)n(C)c3c3cnc4ccccc4n23)c1 -14.6%, Cc1c(NC(=O)Nc2ccc(C#N)cc2)c(=O)n(-c2ccccc2)n1C -21%, COc1ccc(C2c3[nH]c4ccc(OC)cc4c3CCN2C(=O)Nc2ccccc2)cc1 (stereo unspecified) -15.3%, Cc1cc(C)c(NC(=O)Cn2nnc(-c3nc(-c4ccccc4)no3)c2N)c(C)c1 -9.64%, CCCOC(=O)c1ccc(O)cc1 -18% [at 114 µM], Cc1cc(C)c2c(n1)SCCN2C(=O)Nc1ccc(C(=O)Nc2ccc(C(C)C)cc2)cc1 -5.6%, CCN(CCN(C)C)C(=O)C1CCN(S(=O)(=O)c2c(C)noc2/C=C/c2ccccc2F)CC1 2.39%, Cc1ccc(-c2cc(C(F)(F)F)nn2-c2ccc(S(N)(=O)=O)cc2)cc1 -13.4%, CSc1ncc(C(=O)Nc2cc(Cl)ccc2C)c(-c2ccccc2)n1 -3.56%, COc1ccccc1NC(=O)C1CCN(c2cnccn2)CC1 -8.03%
